Data taken from the supplement of paper PMC12217912.
The list shows a part of the results. Sequences were assembled here from the parent chain. Values near 0.05 are background.

B1: TEV protease; numbered along this chain (parent)
chain: MGESLFKGPRDYNPISSSICHLTNESDGHTTSLYGIGFGPFIITNKHLFRRNNGTLVVQSLHGVFKVKDTTTLQQHLVDGRDMIIIRMPKDFPPFPQKLKFREPQREERICLVTTNFQTKSMSSMVSDTSCTFPSGDGIFWKHWIQTKDGQCGSPLVSTRDGFIVGIHSASNFTNTNNYFTSVPKNFMELLTNQEAQQWVSGWRLNADSVLWGGHKVFMVKPEEPFQPVKEATQL

Variants of: B1
Assay: raw area under fraction-flipped curve 0-4 h after induction (AUC4h, not background-subtracted), DNA-recorder readout of cleavage of the substrate (dimensionless); higher = more cleavage of the substrate by the protease variant
Conditions: temperature: 34 °C; time window: 0-4 h after rhamnose induction
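Further: Bxb1 expression induced with 0.2% (w/v) L-rhamnose at OD600 near 0.5, cultures sampled hourly, flipped fraction per protease–substrate barcode pair counted by paired-end Illumina sequencing.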

Variant	area with substrate ENLYFCS	area with substrate ENLYFDS	area with substrate ENLYFES	area with substrate ENLYFFS	area with substrate ENLYFHS	area with substrate ENLYFIS	area with substrate ENLYFKS	area with substrate ENLYFMS	area with substrate ENLYFNS	area with substrate ENLYFPS	area with substrate ENLYFSS	area with substrate ENLYFTS	area with substrate ENLYFVS	area with substrate ENLYFWS	area with substrate ENLYFYS	area with substrate ENLYFGS	area with substrate ENLYFRS	area with substrate ENLYFLS
MGESLFKGPRDYNPISSSICHLTNESDGHTTSLYGIGFGPFIITNKHLFRRNNGTLVVQSLHGVFKVKDTTTLQQHLVDGRDMIIIRMPKDFPPFPQKLKFREPQREERICLVTTNFQTKSMSSMVSDTSCTFPSGDGIFWKHWIQTKDGQFGSPLVSTRDGFIVGIHSASNFTNTNNYFTSVPKNFMELLTNQEAQQWVSGWRLNADSVLWGGHKVFMVKPEEPFQPVKEATQL [C152F]	0.0574	0.052	0.0627	0.0755	0.058	0.0603	0.0599	0.0558	0.051	0.0541	0.051	0.0508	0.0489	0.0625	–	–	–	–
MGESLFKGPRDYNPISSSICHLTNESDGHTTSLYGIGFGPFIITNKHLFRRNNGTLVVQSLHGVFKVKDTTTLQQHLVDGRDMIIIRMPKDFPPFPQKLKFREPQREERICLVTTNFQTKSMSSMVSDTSCTFPSGDGIFWKHWIQTKDGQDGSPLVSTRDGFIVGIHSASNFTNTNNYFTSVPKNFMELLTNQEAQQWVSGWRLNADSVLWGGHKVFMVKPEEPFQPVKEATQL [C152D]	0.0661	–	0.0699	–	–	0.0545	0.0648	–	–	–	0.0593	0.0304	0.082	0.048	0.0534	–	–	–
MGESLFKGPRDYNPISSSICHLTNESDGHTTSLYGIGFGPFIITNKHLFRRNNGTLVVQSLHGVFKVKDTTTLQQHLVDGRDMIIIRMPKDFPPFPQKLKFREPQREERICYVTTNFQTKSMSSMVSDTSCTFPSGDGIFWKHWIQTKDGQCGSPLVSTRDGFIVGIHSASNFTNTNNYFTSVPKNFMELLTNQEAQQWVSGWRLNADSVLWGGHKVFMVKPEEPFQPVKEATQL [L112Y]	0.0558	0.0671	0.0629	0.071	0.0462	0.0531	0.0541	0.0625	0.0485	0.0567	0.0641	0.0522	0.0588	0.0417	0.0684	0.0631	0.0555	–
MGESLFKGPRDYNPISSSICHLTNESDGHTTSLYGIGFGPFIITNKHLFRRNNGTLVVQSLHGVFKVKDTTTLQQHLVDGRDMIIIRMPKDFPPFPQKLKFREPQREERICWVTTNFQTKSMSSMVSDTSCTFPSGDGIFWKHWIQTKDGQCGSPLVSTRDGFIVGIHSASNFTNTNNYFTSVPKNFMELLTNQEAQQWVSGWRLNADSVLWGGHKVFMVKPEEPFQPVKEATQL [L112W]	0.0993	0.0557	0.077	0.0695	0.0581	0.0545	0.0521	0.0654	0.0509	0.0457	0.0581	–	–	0.0531	0.0566	–	0.063	0.0775
MGESLFKGPRDYNPISSSICHLTNESDGHTTSLYGIGFGPFIITNKHLFRRNNGTLVVQSLHGVFKVKDTTTLQQHLVDGRDMIIIRMPKDFPPFPQKLKFREPQREERICLVTTNFQTKSMSSMVSDTSCTFPSGDGIFWKHWIQTKMGQCGSPLVSTRDGFIVGIHSASNFTNTNNYFTSVPKNFMELLTNQEAQQWVSGWRLNADSVLWGGHKVFMVKPEEPFQPVKEATQL [D149M]	0.042	–	0.0657	0.0535	0.0629	0.0568	0.067	0.064	0.0533	0.0602	0.0342	–	0.0082	0.067	–	0.0734	–	–
MGESLFKGPRDYNPISSSICHLTNESDGHTTSLYGIGFGPFIITNKHLFRRNNGTLVVQSLHGVFKVKDTTTLQQHLVDGRDMIIIRMPKDFPPFPQKLKFREPQREERICLVTTNFQTKSMSSMVSDTSCTFPSGDGIFWKHRIQTKDGQCGSPLVSTRDGFIVGIHSASNFTNTNNYFTSVPKNFMELLTNQEAQQWVSGWRLNADSVLWGGHKVFMVKPEEPFQPVKEATQL [W144R]	0.0645	0.0627	–	0.0763	–	–	0.0681	0.0657	0.0586	0.0659	–	0.0718	–	0.0496	0.049	0.0633	0.0682	–
MGESLFKGPRDYNPISSSICHLTNESDGHTTSLYGIGFGPFIITNKHLFRRNNGTLVVQSLHGVFKVKDTTTLQQHLVDGRDMIIIRMPKDFPPFPQKLKFRGPQREERICLVTTNFQTKSMSSMVSDTSCTFPSGDGIFWKHWIQTKDGQCGSPLVSTRDGFIVGIHSASNFTNTNNYFTSVPKNFMELLTNQEAQQWVSGWRLNADSVLWGGHKVFMVKPEEPFQPVKEATQL [E103G]	0.0548	–	0.0456	0.0722	0.0727	0.0659	0.0583	0.0645	0.11	0.0588	0.0591	0.0524	0.0568	0.0602	0.0537	0.0598	0.0645	0.0607
MGESLFKGPRDYNPISSSICHLTNESDGHTTSLYGIGFGPFIITNKHLFRRNNGTLVVQSLHGVFKVKDTTTLQQHLVDGRDMIIIRMPKDFPPFSQKLKFREPQREERICLVTTNFQTKSMSSMVSDTSCTFPSGDGIFWKHWIQTKDGQCGSPLVSTRDGFIVGIHSASNFTNTNNYFTSVPKNFMELLTNQEAQQWVSGWRLNADSVLWGGHKVFMVKPEEPFQPVKEATQL [P96S]	0.0243	–	0.0784	0.0673	–	0.0488	0.0894	0.0748	–	–	0.0572	0.0552	–	–	0.0658	–	–	0.067
MGESLFKGPRDYNPISSSICHLTNESDGHTTSLYGIGFGPFIITNKHLFRRNNGTLVVQSLHGVFKVKDTTTLQQHLVDGRDMIIIRMPKDFPPFPQKLKFREPQDEERICLVTTNFQTKSMSSMVSDTSCTFPSGDGIFWKHWIQTKDGQCGSPLVSTRDGFIVGIHSASNFTNTNNYFTSVPKNFMELLTNQEAQQWVSGWRLNADSVLWGGHKVFMVKPEEPFQPVKEATQL [R106D]	0.0627	0.0637	0.064	0.0814	0.0618	0.0572	0.0682	0.0728	0.0689	0.0563	0.065	0.0544	0.0681	–	0.0641	–	0.0523	0.0649
